Some of the results follow.

The target of this test is T1, MBP-FoxP1dN (Mus musculus, UniProt P58462 326-579).
T1 sequence: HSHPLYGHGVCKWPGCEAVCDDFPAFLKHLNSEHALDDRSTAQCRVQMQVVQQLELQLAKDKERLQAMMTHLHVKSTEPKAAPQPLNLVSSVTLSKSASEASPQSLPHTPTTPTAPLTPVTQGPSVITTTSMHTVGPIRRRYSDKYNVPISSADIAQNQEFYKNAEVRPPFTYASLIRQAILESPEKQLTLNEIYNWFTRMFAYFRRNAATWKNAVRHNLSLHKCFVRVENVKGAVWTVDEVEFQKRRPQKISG
The test is described as follows: PD-seq (MBP pull-down with sequencing); 20 mM Tris-HCl pH 7.5, 100 mM NaCl, 1.5 mM MgCl2, 0.4 uM protein, 0.1 uM dsDNA library, 30 min, room temperature, amylose pull-down; high values mean tight binding. The note with it: protein: recombinant; tags: His6-MBP; chain copies: 2; dsDNA, one strand shown. An outline of the steps: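 Protein and DNA were mixed at 0.4 µM and 0.1 µM and held for 30 min at room temperature in Tris pH 7.5 buffer with NaCl and MgCl2; the protein was a His6-MBP-tagged, N-terminally truncated mouse FoxP3 or FoxP1 fragment from E. coli, and the DNA a Klenow-filled double-stranded degenerate library. Amylose resin captured the complexes, which were washed three times. Binding is read as reads-per-million enrichment of pull-down versus input after Illumina sequencing, with replicates pooled.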
On to “GATGATTGTTCTCCCAGCTGATGAATTTCACTACTCGAGTAAACAAATTTTCCTAATCTTTCTGTTCAAGCGCCATCTAC”, for which the binding signal is 0.818 RPM ratio (pull-down/input).

In the case of “GATGATTGTTCTCCCAGCTGATGAATTAAAAACATCGAGTAAACAAATTTTCCTAATCTTTCTGTTCAAGCGCCATCTAC”, the binding signal is 2.08 RPM ratio (pull-down/input). Consider “GATGATTGTTCTCCCAGCTGATGAATTACTGTAATCGAGTAAACAAATTTTCCTAATCTTTCTGTTCAAGCGCCATCTAC”, for which the binding signal was 1.63 RPM ratio (pull-down/input). In the case of “GATGATTGTTCTCCCAGCTGATGAATTACAACAGTCGAGTAAACAAATTTTCCTAATCTTTCTGTTCAAGCGCCATCTAC”, the binding signal was 1.44 RPM ratio (pull-down/input). Regarding “GATGATTGTTCTCCCAGCTGATGAATTGTCCTTCTCGAGTAAACAAATTTTCCTAATCTTTCTGTTCAAGCGCCATCTAC”, the binding signal is 0.998 RPM ratio (pull-down/input). Then “GATGATTGTTCTCCCAGCTGATGAATTTCGCACATCGAGTAAACAAATTTTCCTAATCTTTCTGTTCAAGCGCCATCTAC”, with 1.02 RPM ratio (pull-down/input); and “GATGATTGTTCTCCCAGCTGATGAATTTCGCTTGTCGAGTAAACAAATTTTCCTAATCTTTCTGTTCAAGCGCCATCTAC”, with 0.952 RPM ratio (pull-down/input); and “GATGATTGTTCTCCCAGCTGATGAATTTAGGCCATCGAGTAAACAAATTTTCCTAATCTTTCTGTTCAAGCGCCATCTAC”, with 0.918 RPM ratio (pull-down/input). For the sequence “GATGATTGTTCTCCCAGCTGATGAATTAGACACTTCGAGTAAACAAATTTTCCTAATCTTTCTGTTCAAGCGCCATCTAC”, the binding signal is 0.99 RPM ratio (pull-down/input). As for “GATGATTGTTCTCCCAGCTGATGAATTCGAGCAGTCGAGTAAACAAATTTTCCTAATCTTTCTGTTCAAGCGCCATCTAC”, the binding signal was 0.833 RPM ratio (pull-down/input). As for “GATGATTGTTCTCCCAGCTGATGAATTCTGCATTTCGAGTAAACAAATTTTCCTAATCTTTCTGTTCAAGCGCCATCTAC”, the binding signal was 1.12 RPM ratio (pull-down/input).

For the sequence “GATGATTGTTCTCCCAGCTGATGAATTAGGAAGCTCGAGTAAACAAATTTTCCTAATCTTTCTGTTCAAGCGCCATCTAC”, the binding signal was 0.891 RPM ratio (pull-down/input).

“GATGATTGTTCTCCCAGCTGATGAATTCGGGTGATCGAGTAAACAAATTTTCCTAATCTTTCTGTTCAAGCGCCATCTAC”: the binding signal was 0.848 RPM ratio (pull-down/input). With “GATGATTGTTCTCCCAGCTGATGAATTGGAAAGGTCGAGTAAACAAATTTTCCTAATCTTTCTGTTCAAGCGCCATCTAC”, the binding signal is 0.797 RPM ratio (pull-down/input).

As to “GATGATTGTTCTCCCAGCTGATGAATTTTGCGCCTCGAGTAAACAAATTTTCCTAATCTTTCTGTTCAAGCGCCATCTAC”, the binding signal is 0.952 RPM ratio (pull-down/input).

For the sequence “GATGATTGTTCTCCCAGCTGATGAATTTCGGGCTTCGAGTAAACAAATTTTCCTAATCTTTCTGTTCAAGCGCCATCTAC”, the binding signal is 0.748 RPM ratio (pull-down/input).

As to “GATGATTGTTCTCCCAGCTGATGAATTAGTACGGTCGAGTAAACAAATTTTCCTAATCTTTCTGTTCAAGCGCCATCTAC”, the binding signal is 0.956 RPM ratio (pull-down/input). Take “GATGATTGTTCTCCCAGCTGATGAATTTATACCGTCGAGTAAACAAATTTTCCTAATCTTTCTGTTCAAGCGCCATCTAC”: the binding signal was 1.01 RPM ratio (pull-down/input). Then “GATGATTGTTCTCCCAGCTGATGAATTCATTCAGTCGAGTAAACAAATTTTCCTAATCTTTCTGTTCAAGCGCCATCTAC”, with 0.912 RPM ratio (pull-down/input); and “GATGATTGTTCTCCCAGCTGATGAATTGATGGTATCGAGTAAACAAATTTTCCTAATCTTTCTGTTCAAGCGCCATCTAC”, with 1.05 RPM ratio (pull-down/input); and “GATGATTGTTCTCCCAGCTGATGAATTAAGGCCCTCGAGTAAACAAATTTTCCTAATCTTTCTGTTCAAGCGCCATCTAC”, with 0.907 RPM ratio (pull-down/input). With “GATGATTGTTCTCCCAGCTGATGAATTGATTCTTTCGAGTAAACAAATTTTCCTAATCTTTCTGTTCAAGCGCCATCTAC”, the binding signal was 1.12 RPM ratio (pull-down/input). Then “GATGATTGTTCTCCCAGCTGATGAATTTATACTTTCGAGTAAACAAATTTTCCTAATCTTTCTGTTCAAGCGCCATCTAC”, with 1.19 RPM ratio (pull-down/input); and “GATGATTGTTCTCCCAGCTGATGAATTCTGGTGCTCGAGTAAACAAATTTTCCTAATCTTTCTGTTCAAGCGCCATCTAC”, with 0.797 RPM ratio (pull-down/input); and “GATGATTGTTCTCCCAGCTGATGAATTGGTTTAATCGAGTAAACAAATTTTCCTAATCTTTCTGTTCAAGCGCCATCTAC”, with 1.03 RPM ratio (pull-down/input). “GATGATTGTTCTCCCAGCTGATGAATTCGGTTGCTCGAGTAAACAAATTTTCCTAATCTTTCTGTTCAAGCGCCATCTAC”: the binding signal was 0.897 RPM ratio (pull-down/input). For “GATGATTGTTCTCCCAGCTGATGAATTTAGGCGGTCGAGTAAACAAATTTTCCTAATCTTTCTGTTCAAGCGCCATCTAC” the value was 0.809 RPM ratio (pull-down/input); for “GATGATTGTTCTCCCAGCTGATGAATTGACAGACTCGAGTAAACAAATTTTCCTAATCTTTCTGTTCAAGCGCCATCTAC”, 1.05 RPM ratio (pull-down/input).

In the case of “GATGATTGTTCTCCCAGCTGATGAATTGTGATTTTCGAGTAAACAAATTTTCCTAATCTTTCTGTTCAAGCGCCATCTAC”, the binding signal is 1.39 RPM ratio (pull-down/input). For “GATGATTGTTCTCCCAGCTGATGAATTACCGCCCTCGAGTAAACAAATTTTCCTAATCTTTCTGTTCAAGCGCCATCTAC” the value was 0.793 RPM ratio (pull-down/input). Regarding “GATGATTGTTCTCCCAGCTGATGAATTGAGGTACTCGAGTAAACAAATTTTCCTAATCTTTCTGTTCAAGCGCCATCTAC”, the binding signal is 0.848 RPM ratio (pull-down/input). Then “GATGATTGTTCTCCCAGCTGATGAATTGGAAGACTCGAGTAAACAAATTTTCCTAATCTTTCTGTTCAAGCGCCATCTAC”, with 0.821 RPM ratio (pull-down/input).

Values taken from PMC12820563, “FoxP3 forms a head-to-head dimer in vivo and stabilizes its multimerization on adjacent microsatellites”.
